The values below come from patent US20240131068A1 (KITE PHARMA, published 2024).

In the assay the target is T1, native CD19 expressed on NALM6 tumor cells (UniProt P15391 20-556).
T1 construct: whole, on cells; also called CD19^+ NALM6; NALM6-wt
T1 sequence (looked up): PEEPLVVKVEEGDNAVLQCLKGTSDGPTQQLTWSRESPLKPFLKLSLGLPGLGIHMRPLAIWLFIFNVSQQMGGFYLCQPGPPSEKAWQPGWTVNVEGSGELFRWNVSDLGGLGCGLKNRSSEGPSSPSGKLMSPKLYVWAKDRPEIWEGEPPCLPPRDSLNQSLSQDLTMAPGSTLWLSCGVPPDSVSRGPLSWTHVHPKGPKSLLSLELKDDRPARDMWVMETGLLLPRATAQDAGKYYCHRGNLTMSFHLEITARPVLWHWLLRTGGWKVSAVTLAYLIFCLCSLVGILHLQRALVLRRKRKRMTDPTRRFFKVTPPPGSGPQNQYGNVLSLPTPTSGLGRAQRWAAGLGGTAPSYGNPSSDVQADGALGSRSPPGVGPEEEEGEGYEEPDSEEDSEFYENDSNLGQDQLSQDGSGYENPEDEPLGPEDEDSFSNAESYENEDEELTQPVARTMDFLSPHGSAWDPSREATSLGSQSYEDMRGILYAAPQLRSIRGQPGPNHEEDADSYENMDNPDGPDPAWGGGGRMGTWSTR
The assay is described as follows: screen of scFv clones on CD19^+ NALM6 cells, Nalm6-CD19KO cells as negative control.

B1: CD19 E4 scFv (P3) (scFv)
scFv: [no letters for about 100 residues]VTFGQGTKVEIKGGGGSGGGGSGGGGSQVQLVQSGAEVKKPGSSVKVSCKASGGTFSNYAINWVRQAPGQGLEWMGRIVPLLGIANYAQKFQGRVTITADESTSTAYMELSSLRSEDTAVYYCAREHIAYRPTSAGYYYYMDIWGQGTLVTVSS
notes: scFv clone from the display library, screened as a library clone; also called 44; clone 44
For the molecule B1, the binding result was “binds”.

B2: CD19 A4 scFv (P2) (scFv)
scFv: [no letters for about 100 residues]SWTFGQGTKVEIKGGGGSGGGGSGGGGSQVQLVQSGAEVKKPGSSVKVSCKASGGTFSNYYISWVRQAPGQGLEWMGGIIPLFGTTNYAQKFQGRVTITADESTSTAYMELSSLRSEDTAVYYCARGTWYAGDIWGQGTLVTVSS
notes: scFv clone from the display library, screened as a library clone; also called 43; clone 43
Turning to B2, the binding result was “binds”.
